Results taken from paper PMC4336329 (PLoS ONE, 2015).
Among all 310,000 compounds or so, about 2,200 (0.71%) showed an effect of 50% or more. The effect is printed as a negative number. Some of the results follow.

Target: human ether-à-go-go-related gene (hERG) potassium channel (human, UniProt Q12809)
Experiment: primary screen, population patch clamp on CHO cells stably expressing hERG

human ether-à-go-go-related gene (hERG) potassium channel, sequence (Q12809 whole entry, looked up): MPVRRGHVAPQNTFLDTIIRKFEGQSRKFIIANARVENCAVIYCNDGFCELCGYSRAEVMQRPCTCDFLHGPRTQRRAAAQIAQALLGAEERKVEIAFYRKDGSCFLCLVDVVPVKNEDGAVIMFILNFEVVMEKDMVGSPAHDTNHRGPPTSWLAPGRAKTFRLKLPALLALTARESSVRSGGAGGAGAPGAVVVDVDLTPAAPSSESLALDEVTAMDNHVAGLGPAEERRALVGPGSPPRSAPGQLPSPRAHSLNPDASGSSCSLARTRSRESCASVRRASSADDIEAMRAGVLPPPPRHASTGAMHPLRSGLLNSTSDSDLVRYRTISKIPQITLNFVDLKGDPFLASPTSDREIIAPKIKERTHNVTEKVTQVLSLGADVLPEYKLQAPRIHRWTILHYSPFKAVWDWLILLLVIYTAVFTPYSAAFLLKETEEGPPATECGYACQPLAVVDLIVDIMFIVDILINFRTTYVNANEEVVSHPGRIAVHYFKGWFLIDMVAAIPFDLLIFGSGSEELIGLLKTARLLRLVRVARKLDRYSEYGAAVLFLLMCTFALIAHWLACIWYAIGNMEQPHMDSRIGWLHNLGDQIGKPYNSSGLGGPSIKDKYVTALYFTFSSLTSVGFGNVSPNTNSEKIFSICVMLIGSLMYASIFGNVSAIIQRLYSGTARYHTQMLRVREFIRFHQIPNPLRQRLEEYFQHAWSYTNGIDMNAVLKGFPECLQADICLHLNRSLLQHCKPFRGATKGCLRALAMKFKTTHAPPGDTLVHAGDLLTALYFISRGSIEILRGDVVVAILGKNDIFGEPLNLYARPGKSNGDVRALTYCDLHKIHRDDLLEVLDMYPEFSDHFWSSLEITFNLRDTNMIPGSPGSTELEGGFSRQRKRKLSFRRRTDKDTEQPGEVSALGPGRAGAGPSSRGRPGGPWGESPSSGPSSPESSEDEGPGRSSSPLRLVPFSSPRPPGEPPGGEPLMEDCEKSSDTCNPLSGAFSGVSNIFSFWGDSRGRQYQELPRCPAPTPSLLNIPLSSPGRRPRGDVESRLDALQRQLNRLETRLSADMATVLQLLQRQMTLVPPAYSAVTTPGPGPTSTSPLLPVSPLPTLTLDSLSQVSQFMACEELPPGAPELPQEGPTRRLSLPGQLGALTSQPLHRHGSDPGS

SMILES	hERG current change (%, negative = inhibition) at 1uM
Cc1cccc(OCC2=N/C(=C\N(C)C)C(=O)O2)c1	5.7%
CCN1CCN(c2cc(C)c3cc(NC(=O)c4cc(OC)cc(OC)c4)ccc3n2)CC1	10.1%
NC(=S)NC1CC2CC1C1C=CCC21 (stereo not drawn)	14%
COc1cc(/C=C/C(=O)N2CCOCC2)ccc1OCc1ccccc1	-0.192%
Cc1cccc(C)c1-n1c(C)cc(/C=C2\NC(=O)NC2=O)c1C	-4.15%
CCc1ccc(CN2CCC(C(=O)Nc3ccc(-n4nc(C)cc4C)cc3)CC2)o1	-4.73%
Cc1cccc(NC(=O)CCc2ccc(S(=O)(=O)NC3CCCCC3)cc2)c1	13.5%
CCOCCCNC(=O)CC1Oc2ccc(C)cc2NC1=O (stereo not drawn)	1.9%
CC(=O)c1ccc(NC(=O)CSc2nc3[nH]ncc3c(=O)[nH]2)cc1	17.2%
COc1ccc(/C(C)=N/N2C(C)CCCC2C)c(OC)c1 (stereo not drawn)	9.4%
CC1(OC(=O)c2ccco2)C(=O)C=C2C=C(c3ccsc3)OC=C2C1=O (stereo not drawn)	9.06%
O=C(N/N=C/c1cc([N+](=O)[O-])ccc1O)Nc1ccccc1	14.1%
COc1ccccc1CNC(=O)Cn1nnc(-c2ccncc2)n1	4.09%
Cc1nc(NC(C)C)c2oc3ccccc3c2n1.Cl	-8.88%
Br.FC(F)(F)c1nnc2n1N=C(c1ccccc1)CS2	12.7%
CC(C)CNC(=O)C1Nc2ccc(C(F)(F)F)cc2C2C=CCC12 (stereo not drawn)	9.89%
Cc1csc(NC(=O)CSc2nc(C)cs2)n1	7.16%
CCOc1ccc(N(CC(=O)N2CCCCC2)S(=O)(=O)c2ccc(Cl)cc2)cc1	10.5%
COc1ccc(C(=O)NNC(=O)Cc2ccc([N+](=O)[O-])cc2)cc1	13.5%
C=CCNC(=O)CN1CCC(O)(c2ccc(F)cc2)CC1	5.88%
CC(C)n1c(C(O)c2ccccc2)nc2ccccc21 (stereo not drawn)	9.39%
COC(=O)c1cc(OC)c(OC)cc1NC(=O)c1ccccc1C	11.3%

SMILES	hERG current change (%, negative = inhibition) at 1uM
CCC(c1nnnn1C1CCCC1)N1CCN(C(=O)c2ccco2)CC1.Cl (stereo not drawn)	-2.67%
O=C(Nc1c2c(nn1-c1ccccc1)CS(=O)C2)c1ccc(S(=O)(=O)N2CCOCC2)cc1 (stereo not drawn)	15.1%
Cc1cc(C)nc(NS(=O)(=O)c2ccc(NC(=O)NC3CCCCC3)cc2)n1	5.18%
Cc1[nH]n(-c2ccc([N+](=O)[O-])cc2)c(=O)c1C=NCCN1CCN(C(=O)c2cccc(F)c2)CC1	-78%
Brc1ccc(/C=N/Nc2nc3ccccc3o2)cc1	16%
Cc1cc(N2CCN(c3cccc(C(F)(F)F)c3)CC2)n2nc(C)nc2n1	-18.7%
CCc1ccc2nc(N(CCCN(C)C)C(=O)c3ccc(S(=O)(=O)N4CCc5ccccc5C4)cc3)sc2c1.Cl	5.61%
Cl.Clc1cccc(CSc2nnc([C@@H]3CCCN3)o2)c1	-0.911%
CC(C)(C)NC(=O)COC(=O)Cc1ccc(Cl)cc1	8.79%
Cc1cc(F)ccc1NC(=O)CCc1c(C)nn(-c2ccc(N3CCCCC3)nn2)c1C	14.9%
CCN(CC(=O)Nc1ccc2c(c1)CCC2)Cc1nc2ccccc2c(=O)[nH]1	-1.18%
C#CCN1C(=O)S/C(=C/C=C/c2ccc(N(C)C)cc2)C1=O	18.8%
Cc1ccccc1NC(=O)c1cccc(S(=O)(=O)N2CCOCC2)c1	0.392%
O=C(Nc1nnc(/C=C/c2ccccc2)s1)c1ccco1	12.6%
CC(=O)Nc1ccccc1-c1nc2ccccc2nc1OCC(=O)c1ccc(Br)cc1	5.63%
COc1ccc(NC(=O)[C@H](C)NC(=O)C2CCN(S(=O)(=O)c3ccc(C)cc3)CC2)cc1OC	8.39%
Cn1c(C(=O)NCCCN2CCCC2=O)cc2c(=O)n(C)c3ccccc3c21	-0.935%
CCN1CCN(CCCNC(=O)c2ccc3c(c2)N(Cc2ccc(C)cc2)CCS3)CC1	8.86%
CN1CCN(S(=O)(=O)c2ccc(NC(=S)NC(=O)C3CCCCC3)cc2)CC1	6.49%
COc1ccc(CCNC(=O)C2CC(c3cccc([N+](=O)[O-])c3)=NO2)cc1 (stereo not drawn)	1.61%
CCN(CC)C(=O)CSc1nnc(CCCCCNC(=O)OC(C)(C)C)o1	-6.38%
O=C(Cc1nnc(NC(=O)c2ccccc2)s1)N/N=C/c1ccc(O)cc1	11.7%

SMILES	hERG current change (%, negative = inhibition) at 1uM
Cc1cc(C)n2[nH]c(=O)c(N=Nc3ccccc3)c2n1	15.4%
O=S(=O)(c1ccc(NC(=S)NCc2ccco2)cc1)N1CCCC1	18.4%
COc1ccc(CCn2c(=N)c(C(=O)NC3CCCCC3)cc3c(=O)n4ccccc4nc32)cc1	-84.1%
CC(C)C[C@H](N)c1cn([C@@H](CCCCN)C(=O)N2CCNCC2)nn1.Cl	7.39%
COC(=O)c1ccccc1NC(=O)Nc1cccs1	18.1%
CC(C(=O)Nc1nc(-c2ccc(F)c(F)c2)cs1)N1C(=O)C2CC=CCC2C1=O (stereo not drawn)	-3.18%
CCCCn1c(N)c(N(CCOC)C(=O)c2cc(S(=O)(=O)N3CCCCC3)ccc2Cl)c(=O)[nH]c1=O	-0.133%
Cn1ncc2c(Nc3cc(Cl)cc(Cl)c3)ncnc21	8.63%
COC(=O)Cn1c(=O)c2c(nc3n2CCCN3CCc2ccccc2)n(C)c1=O	-6.51%
COC(=O)CCc1ccc(OCC(O)CNC(C)C)cc1.Cl (stereo not drawn)	0.474%
COc1ccc(/C=C/C(=O)Nc2ccc(OC)nc2)cc1	0.889%
CNCC/C=C1/c2ccccc2CSc2ccccc21.Cl	-0.0994%
CCOc1ccccc1N1CN(Cc2ccccc2)CNC1=S	6.78%
Cn1cnnc1SCC(=O)Nc1cccc(C(=O)O)c1	13.2%
CCN(C(=O)CSc1nnc(-c2ccncc2)n1-c1ccccc1)C1CCS(=O)(=O)C1 (stereo not drawn)	6.32%
Cc1ccnc(NS(=O)(=O)c2ccc(NC(=O)CSc3nc(-c4ccccc4)cc(=O)[nH]3)cc2)n1	4.68%
Cc1ccc(/C(O)=C2/C(=O)C(=O)OC2c2ccc(Cl)cc2)cc1 (stereo not drawn)	16.5%
Cc1ccccc1NS(=O)(=O)c1ccc(C(=O)N2CCN(S(=O)(=O)c3ccccc3)CC2)cc1	14.7%
COC(=O)c1c(NC(=O)C2COc3ccccc3O2)sc2c1CCN(Cc1ccccc1)C2.Cl (stereo not drawn)	-0.364%
Cc1noc(C)c1C(=O)OCC(=O)NCCc1ccc(Cl)cc1	11.9%
O=C(CCNS(=O)(=O)c1ccccc1)OCC(=O)c1ccc[nH]1	12.6%
CCOC(=O)C(CC)Sc1ncnc2c1nnn2-c1ccc(F)cc1 (stereo not drawn)	11.4%

SMILES	hERG current change (%, negative = inhibition) at 1uM
Cc1nnc(-c2ccc(N3CCCCCC3)c([N+](=O)[O-])c2)o1	12.2%
CCOc1ccc(NC(=O)CN(C)C(=O)C2CCN(C(=O)c3ccc(Cl)cc3)CC2)cc1OCC	-0.0053%
CC(=C/c1ccccc1)/C=N/n1c(-c2ccco2)n[nH]c1=S	11.9%
CCOc1cc(CNn2cnnc2)cc(Br)c1OCC(=O)NC1CCCCC1	1.98%
O=C(Cn1cnnn1)NCc1ccccc1	18.2%
O=C(c1ccc(Br)o1)N1CCCc2ccccc21	5.26%
C#Cc1ccc([C@@H]2C=C(C(=O)N3CCOCC3)O[C@H](OCC)[C@H]2CCCO)cc1	7.15%
COc1c(F)c(F)cc2c(=O)c(C(=O)O)cn(C3CC3)c12	2.58%
COc1ccc(-n2nnnc2SCC(=O)N2CCN(C(=O)c3ccco3)CC2)cc1OC	11%
Cc1ccc(Nc2nc(N)nc(CN3CCN(Cc4ccc5c(c4)OCO5)CC3)n2)cc1Cl	-34.6%
Cc1cccc2nc(CSc3ccccc3C(=O)O)cn12	15.7%
Cc1cc(C)cc(NC(=O)C(OC(=O)c2ccc(NC(=O)CC#N)cc2)c2ccccc2)c1 (stereo not drawn)	9.31%
COc1ccc(CN2C(=O)c3ccccc3C2=O)cc1C(=O)N(C)CC(=O)Nc1c(C)cccc1C	7.18%
O=C(CSc1nn(-c2ccc(F)cc2)c(=S)s1)NC(=O)NCc1ccco1	12.7%
COc1cccc(C2C([N+](=O)[O-])=C(N)Oc3cc(C)oc(=O)c32)c1 (stereo not drawn)	10.3%
COc1ccc(C(=O)NNC2=CC(=O)CC(C)(C)C2)cc1	9.33%
O=C(CN1C(=O)COc2ccccc21)NCCN1CCCC1	12.7%
O=C(NCCc1ccccc1)c1cccnc1N1CCCCCC1	-2.68%
CCCC(=O)Nc1ccc2c(c1)Cc1ccccc1-2	10.9%
COc1ccc(C2C(C(=O)N3CCN(C)CC3)c3ccccc3C(=O)N2C2CCCCC2)cc1 (stereo not drawn)	14.4%
COc1ccc2nc(N(CCN(C)C)C(=O)/C=C/c3cccs3)sc2c1.Cl	5.55%
